The values below come from the supplement of paper PMC3334620.

Over roughly 33,000 sequences, “E-score (-0.5 to 0.5)” has its median near -0.041; the highest 2% begin near 0.37. The list shows a part of the results.

This test addresses T1, Ecm22 (UniProt Q05958).
T1 sequence: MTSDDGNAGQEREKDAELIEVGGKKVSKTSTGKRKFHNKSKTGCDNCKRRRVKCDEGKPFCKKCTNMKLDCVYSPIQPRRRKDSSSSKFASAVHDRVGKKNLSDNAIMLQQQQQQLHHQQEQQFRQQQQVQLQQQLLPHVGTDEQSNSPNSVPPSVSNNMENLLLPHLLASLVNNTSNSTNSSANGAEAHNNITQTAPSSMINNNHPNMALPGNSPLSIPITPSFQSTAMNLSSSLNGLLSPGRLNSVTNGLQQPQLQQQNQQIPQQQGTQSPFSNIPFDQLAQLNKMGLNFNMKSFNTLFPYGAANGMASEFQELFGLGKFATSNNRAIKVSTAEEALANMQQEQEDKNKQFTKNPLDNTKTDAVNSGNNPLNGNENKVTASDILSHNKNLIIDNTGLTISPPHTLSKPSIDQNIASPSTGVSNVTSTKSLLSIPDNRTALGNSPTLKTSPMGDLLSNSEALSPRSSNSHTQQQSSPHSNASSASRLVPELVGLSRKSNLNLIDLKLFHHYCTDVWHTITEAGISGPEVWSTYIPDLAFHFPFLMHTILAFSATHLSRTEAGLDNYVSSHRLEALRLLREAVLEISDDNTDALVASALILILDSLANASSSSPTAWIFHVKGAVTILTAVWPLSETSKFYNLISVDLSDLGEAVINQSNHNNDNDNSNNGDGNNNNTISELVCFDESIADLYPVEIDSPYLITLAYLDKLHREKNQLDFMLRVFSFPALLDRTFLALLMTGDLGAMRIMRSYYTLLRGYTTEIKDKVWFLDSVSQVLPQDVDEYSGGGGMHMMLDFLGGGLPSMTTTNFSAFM
Kind of test: PBM E-score (8-mer binding enrichment) (E-score (-0.5 to 0.5)); higher = stronger / more preferred TF binding; most listed sequences are background and not binding sites. The following applies: protein concentration: 200 nM; construct: GST-full length. In a few lines: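 The E-score, a modified Wilcoxon-Mann-Whitney statistic, was computed by the Universal PBM Analysis Suite for every ungapped eight-base word pooled with its reverse complement. Scans behind it were normalised with masliner after bound GST-tagged yeast transcription factors were detected with fluorescent anti-GST. The proteins, at about 100-200 nM, had been applied to universal all-10-mer Agilent arrays made double-stranded by primer extension.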
As for GGCATAGA, the “PBM E-score” value was -0.0188.
The same measure for AGCCACTC: -0.0524; for GATGTTAC: 0.0255; for GGACTTAA: -0.112.
The same measure for AAAGTTCG: 0.155; for CGAACCAA: 0.0945; for AAAATCAC: -0.0192.
In the case of CCCGCGAG, the “PBM E-score” value is 0.115.
The same measure for AGTCAAGA: -0.0711.
As for AAGGTGAA, the “PBM E-score” value was -0.06.
Regarding AACCGTAG, the “PBM E-score” value amounted to 0.104.
On to AAAATTTT, for which the “PBM E-score” value is -0.127.
As for ATTTGCTA, the “PBM E-score” value is -0.262.
Take GTAGAAAC: the “PBM E-score” value worked out at 0.0897.
CCTCAACA: the “PBM E-score” value was -0.0357.
The same measure for TCCCAACA: -0.164; for CGCTCAAG: 0.114.
The same measure for CGAAGCAA: 0.107; for ACCCAGTC: -0.172; for CACACTGC: -0.212.
For the sequence CAGTTCCA, the “PBM E-score” value is -0.0209.
Take AGTCCTAT: the “PBM E-score” value was -0.24.
For CACCATAA, the “PBM E-score” value is -0.0782.
With ATCATTCG, the “PBM E-score” value turned out to be 0.178.
The same measure for TACCAGCA: 0.0478.
The same measure for GGGAGCAC: -0.129; for GTCTAGGA: -0.141; for ACCTGTGA: -0.00512.
The same measure for AGGTGTGG: -0.111; for GTATTTTA: 0.126.
Take AGATGGCG: the “PBM E-score” value was -0.102.
TCTGAGAA: the “PBM E-score” value was -0.0868.
The same measure for ACTTATAA: 0.036; for ATAAGTCA: -0.148.
The same measure for CAAGCCCG: -0.0497.
As for AGTAGCAG, the “PBM E-score” value is -0.00574.
The same measure for ATCGCGAG: 0.261.
As to CCAATACA, the “PBM E-score” value is -0.159.
The same measure for GATTGTAC: 0.128.
The same measure for GAAGTTAC: 0.122; for TCATGAGA: 0.0162.
The same measure for CATGACGA: 0.0488.
On to CAAAGGAG, for which the “PBM E-score” value is -0.155.
In the case of GACGGCCA, the “PBM E-score” value was -0.244.
For AAACGTGT, the “PBM E-score” value is 0.139.
As to ATAAAGAG, the “PBM E-score” value is -0.121.
With CACTGATG, the “PBM E-score” value is -0.201.
As to GCGCCGTA, the “PBM E-score” value stood at 0.346.
As for CCCTGCCC, the “PBM E-score” value was -0.24.
On to ATTGCATG, for which the “PBM E-score” value was -0.0321.
The same measure for GCTTTGTA: 0.0419.
With CAAGCCGC, the “PBM E-score” value is -0.0639.
As for AACGATCC, the “PBM E-score” value came out at 0.307.
The same measure for AGTAAATG: -0.0697; for ACTTTGAG: -0.194; for ACGGTACA: 0.155.
The same measure for AAGGGGGT: -0.292; for AATGGTCG: 0.101; for ATCCCGTC: -0.0694.
With CAGTCCTC, the “PBM E-score” value is -0.424.
With AAGAGCCA, the “PBM E-score” value is 0.00838.
The same measure for GACACATC: -0.0159.
For the sequence CCTTTTAA, the “PBM E-score” value is -0.0729.
Regarding CTGCGATA, the “PBM E-score” value worked out at 0.0863.
GGGATGTA: the “PBM E-score” value was -0.0679.
With AAGAGACC, the “PBM E-score” value was -0.164.
Turning to ATCCAATG, the “PBM E-score” value is -0.223.
Consider CTCATGGA, for which the “PBM E-score” value is -0.205.
The same measure for ACGACCGA: 0.394.
The same measure for GTATTGAC: -0.0185; for GGGGAAAC: -0.0478.
The same measure for GACACTCC: -0.0444.
With CCAGGAGC, the “PBM E-score” value is -0.0697.
The same measure for CAATCGAA: 0.0253; for CAAGCCCA: -0.195.
With GTTTCTCA, the “PBM E-score” value is -0.0183.
The same measure for TAGAGGCA: -0.0942; for AAGCTGGA: 0.0238; for CACCATCA: -0.104.
As for AACTGGTG, the “PBM E-score” value is -0.114.
As for AGATACGG, the “PBM E-score” value was 0.28.
Consider TAAAGGGA, for which the “PBM E-score” value was -0.0675.
For the sequence AAGTCCGA, the “PBM E-score” value came to 0.00285.
For the sequence GATATAGC, the “PBM E-score” value is 0.196.
Take CCAAATAG: the “PBM E-score” value was -0.0461.
The same measure for CGGTGTAC: 0.295.
